In the RNAGym collection of RNA variant scans (doi:10.1073/pnas.2313332121):
Variants at the background level are over-represented here.

B1: TPR 5TU (parent)
chain: GGAUCUUCUCGAUCUAACAAAAAAGACAAAUCUGCCACAAAGCUUGAGAGCAUCUUCGGAUGCAGAGGCGGCAGCCUUCGGUGGCGCGAUAGCGCCAACGUUCUCAACUAUGACACGCAAAACGCGUGCUCCGUUGAAUGGAGUUUAUCAUG

Variants of: B1
Assay: polymerase ribozyme fitness, log enrichment relative to wild type (log ratio); higher = more active; in vitro selection for triplet polymerase activity
Outline: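 Genotype fitness is the logarithm of its enrichment divided by wild-type enrichment, using inverse-variance-weighted averages of replicates. That logarithm is base 2. Enrichment was measured by Illumina sequencing of input and output libraries from one triplicate in vitro selection round, with frozen incubation at −7 °C, on PCR-built, transcribed mutant libraries of each subunit of a heterodimeric triplet polymerase ribozyme, retaining genotypes with ≥10 input reads and ≥1 read per output.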

Variant | polymerase ribozyme fitness (log ratio)
G59U C132G U146G | ≤ -4.2
G59U G67C G74A U77G C93G C116A | ≤ -4.2
G59U G71A U77G G94C C95U A122C U139G | ≤ -4.2
G59U G71U C87A | ≤ -4.2
G59U G74A U102G | ≤ -4.2
G59U G80A U127A U144C | ≤ -4.2
G59U G80C C95G U104G | ≤ -4.2
G59U G88C U101G | ≤ -4.2
G59U G94A C118U A150G | -1.69
G59U U77G C96U G126U U139A A147G | ≤ -4.2
G59U U78G | ≤ -4.2
A60C A73U | -3.54
A60C C63U C76G C85U A98C A119U G140U | ≤ -4.2
A60C C76A A98U C105G U135G | ≤ -4.2
A60C C76U C87G U90A C96U A122C A150U | ≤ -4.2
A60C C76U C93U | -3.48
A60C C93A A98U A122C | -2.61
A60C G65A A91C A121U G141U | ≤ -4.2
A60C G65U C76G U139A A142C | ≤ -4.2
A60C G71C C93G G140A U151C | ≤ -4.2
A60C G74A C96A G117A C131G A137G | ≤ -4.2

Variant | polymerase ribozyme fitness (log ratio)
A60C G80A G88C A142U U144G | ≤ -4.2
A60C G81U C99U C129G A142G | ≤ -4.2
A60C G84C C87U U90G A106U G152A | ≤ -4.2
A60C G92U A97G | -2.29
A60C U61A | -2.27
A60C U82A G84U U102G G126U | ≤ -4.2
A60C U101G | -1.58
A60G A66C G94U C108U C125U U139C | -4
A60G A73C G94U U111A | ≤ -4.2
A60G A73U C93U C114A A121U U145C | ≤ -4.2
A60G A73U C93U G133U U134A | ≤ -4.2
A60G A91G | -2.73
A60G A113C U139G U145C U148C | ≤ -4.2
A60G A119C A120U U151C | -4.18
A60G C69A A91U A97U U134C | ≤ -4.2
A60G C72U G124A | 0.612
A60G C75A U134G | ≤ -4.2
A60G C76A G80C G94C C114U G143C U148A | ≤ -4.2
A60G C79A C96U A115G C123A | ≤ -4.2
A60G C85U U144G | 0.543
A60G C96A A121U | -0.437

Variant | polymerase ribozyme fitness (log ratio)
A60G C116A | 1.26
A60G G62C G70C | ≤ -4.2
A60G G67A U78C U102A A107G | ≤ -4.2
A60G G67A U111A A150C | ≤ -4.2
A60G G68A U139A | ≤ -4.2
A60G G70C A107C U111A | ≤ -4.2
A60G G71A U78A C96U | ≤ -4.2
A60G G71U C79A G88U C116U | ≤ -4.2
A60G G83A G133C | -1
A60G G86U U101G G143U | ≤ -4.2
A60G G88U C96G U145G U146A | ≤ -4.2
A60G G88U U101G | ≤ -4.2
A60G G94U | -0.467
A60G G94U G117U U130G C132G | ≤ -4.2
A60G G100A U151G | ≤ -4.2
A60G G143U | -1.77
A60G U61A C69U G86A C114U U144G | ≤ -4.2
A60G U61G A64U G65U G92C A98G A150U | ≤ -4.2
A60G U61G C76A G124C C125G | ≤ -4.2
A60G U90A C95A G117A | -3.93
A60G U130G G141A U145G | ≤ -4.2

Variant | polymerase ribozyme fitness (log ratio)
A60U A91U | ≤ -4.2
A60U C63G G133U | ≤ -4.2
A60U C63U C75A G92C C93U A121U G143A | ≤ -4.2
A60U C75U G83C C95U | ≤ -4.2
A60U C76A G92U A107G C123U G126C U145G | ≤ -4.2
A60U C85G G92C U102G | ≤ -4.2
A60U C87A A98C A120G | ≤ -4.2
A60U C87U U135C | -3.65
A60U C93A A97C A98U C129G | ≤ -4.2
A60U G88C C93U | ≤ -4.2
A60U G92A C114U G140C A147C | ≤ -4.2
A60U G92U C93U C95U C125U | ≤ -4.2
A60U G141U | 0.392
A60U U78A G81C C85G C103G | ≤ -4.2
U61A A66G U111G C116U U139A | ≤ -4.2
U61A A73G C79U C87G G141A | ≤ -4.2
U61A A89G C95U C114G G126A | ≤ -4.2
U61A A89U C95G G133C | ≤ -4.2
U61A A91U U127G | ≤ -4.2
U61A A98U U134G G140U U145A | ≤ -4.2
U61A A107C G128U U139A | ≤ -4.2
